In patent US20240131045A1, “METHODS FOR TREATMENT OF VIRAL INFECTIONS” (priority 2022, published 2024):

What was measured:
SARS-CoV-2 [1] = assay: Efficacy in SARS-CoV-2-infected mice; details: 10 mg/kg BID, 4 or 5 days
SARS-CoV-2 [2] = assay: Efficacy in SARS-CoV-2-infected ferrets; details: 20 mg/kg QD, 4 or 5 days
SARS-CoV-2 [3] = assay: Efficacy in SARS-CoV-2-infected African green monkeys (AGM); details: SARS-CoV-2-infected AGM, 60 mg/kg QD, 4 or 5 days

Measured: infectious virus titers in lungs and genomic RNA compared with vehicle-treated animals

CC(C)C(=O)OC[C@H]1O[C@@](C#N)(c2ccc3c(N)ncnn23)[C@H](O)[C@@H]1O [compound 16, obeldesivir]
significant reduction: all assays above
